# Experimental data published in the supplement of paper PMC12582362.
# Structures can show the parent of a compound that is named as a salt. The whole screen tested about 1,500 compounds, of which about 30 (2%) showed activity.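 How the source made its calls: active = robust z-score below -2; a few such results were not called.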 This is one part of the list.
# System: optoTopBP1 Flp-In 293 T-REx (HEK293) cells
# Assay: light-induced TopBP1 condensate (nuclear foci) count, plate-normalised robust z-score vs non-control wells; higher = more TopBP1 condensates (negative = condensation inhibitor), active = hit call of the paper
# Settings: 10 µM; incubation time 2 h
row,SMILES,light-induced TopBP1 condensate (z-score)
1,COCC(=O)Nc1c(I)c(C(=O)NCC(O)CO)c(I)c(C(=O)N(C)CC(O)CO)c1I (stereo unspecified) [Iopromide],inactive: -0.299
2,CCOC(=O)Nc1ccc(NCc2ccc(F)cc2)nc1N [Flupirtine],inactive: 0.863
3,CC1COc2c(N3CCN(C)CC3)c(F)cc3c(=O)c(C(=O)O)cn1c23 (stereo unspecified) [Ofloxacin],inactive: 0.0516
4,CC(C)=CCC1C(=O)N(c2ccccc2)N(c2ccccc2)C1=O [Feprazone],inactive: 1.11
5,C[C@H](CCC(=O)O)[C@H]1CC[C@H]2[C@@H]3CC[C@@H]4C[C@H](O)CC[C@]4(C)[C@H]3CC[C@]12C [Lithocholic acid],inactive: -0.199
6,N[C@@H](CSCCCO)C(=O)O [Fudosteine],inactive: 0.24
7,CC(=O)SCC(Cc1ccccc1)C(=O)NCC(=O)OCc1ccccc1 (stereo unspecified) [Racecadotril],inactive: -1.22
8,COC(=O)C1=C(C)NC(C)=C(C(=O)OC(C)C)C1c1cccc2nonc12 (stereo unspecified) [Isradipine],inactive: 1.1
9,O=C(Oc1cccc2cccnc12)c1ccccc1 [Benzoxiquine],inactive: -0.428
10,CN1CCC(OC(c2ccccc2)c2ccccc2)CC1 [Diphenylpyraline hydrochloride],inactive: -0.243
11,Clc1ccc(Nc2nnc(Cc3ccncc3)c3ccccc23)cc1 [Vatalanib],inactive: 0.814
12,O=c1[nH]cnc2c1ncn2[C@H]1CC[C@@H](CO)O1 [Didanosine],inactive: 0.3
13,CN(C/C=C/C#CC(C)(C)C)Cc1cccc2ccccc12 [Terbinafine],inactive: -1.01
14,Fc1ccc([C@@H]2CCNC[C@H]2COc2ccc3c(c2)OCO3)cc1 [Paroxetine Hydrochloride],inactive: -1.43
15,Nc1nc(O)c2ncn(CCC(CO)CO)c2n1 [Penciclovir],inactive: -1.4
16,C[C@H]1COc2c(N3CCN(C)CC3)c(F)cc3c(=O)c(C(=O)O)cn1c23 [Levofloxacin],inactive: 0.119
17,NC(CO)C(=O)NNCc1ccc(O)c(O)c1O (stereo unspecified) [Benserazide hydrochloride],inactive: -0.896
18,CCCC(=O)OCOC(=O)C1=C(C)NC(C)=C(C(=O)OC)C1c1cccc(Cl)c1Cl (stereo unspecified) [Clevidipine],inactive: 1.42
19,NCCC[C@H](N)CC(=O)N[C@H]1CNC(=O)[C@H]([C@H]2C[C@H](O)NC(N)=N2)NC(=O)/C(=C/NC(N)=O)NC(=O)[C@H](CO)NC(=O)[C@H](CO)NC1=O [Viomycin sulfate],inactive: -0.169
20,O=C1c2cccc3c2[C@H](CCC3)CN1[C@@H]1CN2CCC1CC2 [Palonosetron hydrochloride],inactive: -1.66
21,O=C1Nc2ccccc2C1(c1ccc(O)cc1)c1ccc(O)cc1 [Oxyphenisatin],inactive: 1.08
22,NCC[C@H](O)C(=O)N[C@@H]1C[C@H](N)[C@@H](O[C@H]2O[C@H](CN)[C@@H](O)[C@H](O)[C@H]2O)[C@H](O)[C@H]1O[C@H]1O[C@H](CO)[C@@H](O)[C@H](N)[C@H]1O [Amikacin hydrate],inactive: 0.105

row,SMILES,light-induced TopBP1 condensate (z-score)
1,O=C(O)CSCC(=O)NC1CCSC1=O (stereo unspecified) [Erdosteine],inactive: -0.512
2,Cc1nc2n(c(=O)c1CCN1CCC(c3noc4cc(F)ccc34)CC1)CCCC2O (stereo unspecified) [Paliperidone],inactive: -0.0254
3,CCN(CC)CCNC(=O)COc1ccc(OC)cc1 [Mefexamide hydrochloride],inactive: -0.0205
4,Clc1ccc(C(Cn2ccnc2)OCc2csc3c(Cl)cccc23)c(Cl)c1 (stereo unspecified) [Sertaconazole nitrate],inactive: 0.206
5,CCOc1ccc(NC(=O)CC(C)O)cc1 (stereo unspecified) [Bucetin],inactive: -0.145
6,CC(=O)OCC1=C(C(=O)O)N2C(=O)[C@@H](NC(=O)Cc3cccs3)[C@H]2SC1 [Cephalothin sodium salt],inactive: -0.486
7,CCCCc1nc(Cl)c(CO)n1Cc1ccc(-c2ccccc2-c2nnn[nH]2)cc1 [Losartan],inactive: 1.02
8,CC1(C)S[C@@H]2[C@H](NC(=O)Cc3ccccc3)C(=O)N2[C@H]1C(=O)O [Benzathine benzylpenicillin],inactive: 0.455
9,CC1(C)S[C@@H]2[C@H](NC(=O)Cc3ccccc3)C(=O)N2[C@H]1C(=O)O [Benzylpenicillin sodium],inactive: 0.664
10,O=C1CCC(N2C(=O)c3ccccc3C2=O)C(=O)N1 (stereo unspecified) [Thalidomide],inactive: -0.291
11,O=C1NCCN1CCN1CCC(c2cn(-c3ccc(F)cc3)c3ccc(Cl)cc23)CC1 [Sertindole],inactive: -0.879
12,O=C1[C@@H]2[C@H]3CC[C@H](C3)[C@@H]2C(=O)N1CCCCN1CCN(c2ncccn2)CC1 [Tandospirone],inactive: 0.0494
13,O=C1OC(CN2CCOCC2)CN1/N=C/c1ccc([N+](=O)[O-])o1 (stereo unspecified) [Furaltadone hydrochloride],inactive: 0.272
14,Cc1ccsc1C(=CCCN1CCC[C@@H](C(=O)O)C1)c1sccc1C [Tiagabine hydrochloride],inactive: 0.0241
15,O=C(O)CCNC(=O)c1ccc(/N=N/c2ccc(O)c(C(=O)O)c2)cc1 [Balsalazide Sodium],inactive: -0.083
16,Cc1cccc(Nc2ccccc2C(=O)O)c1C [Mefenamic acid],inactive: 1.39
17,CCC(C)n1ncn(-c2ccc(N3CCN(c4ccc(OCC5COC(Cn6cncn6)(c6ccc(Cl)cc6Cl)O5)cc4)CC3)cc2)c1=O (stereo unspecified) [Itraconazole],inactive: -0.757
18,CCOc1cc(N)c(Cl)cc1C(=O)NCC1CN(Cc2ccc(F)cc2)CCO1 (stereo unspecified) [Mosapride],inactive: 0.646
19,C[n+]1ccccc1/C=N/O [Pralidoxime chloride],inactive: 0.129
20,C[C@H]1[C@H](OC(=O)CCC(=O)O)O[C@@H]2O[C@@]3(C)CC[C@H]4[C@H](C)CC[C@@H]1[C@@]24OO3 [Artesunate],inactive: -0.0235
21,"CC(C)NCC(O)c1cc(O)cc(O)c1 (stereo unspecified) [Metaproterenol sulfate, orciprenaline sulfate]",inactive: 1.02
22,CCCCCCCCCCCCCCCCCCCCCC(=O)Nc1ccn([C@@H]2O[C@H](CO)[C@@H](O)[C@@H]2O)c(=O)n1 [Enocitabine],inactive: -0.125

row,SMILES,light-induced TopBP1 condensate (z-score)
1,CC(C)NCC(O)COc1cccc2[nH]c3ccccc3c12 (stereo unspecified) [Carazolol],inactive: -1.07
2,C#CCN(C)CCCOc1ccc(Cl)cc1Cl [Clorgyline hydrochloride],inactive: 0.37
3,O=C(O)CN(CCN(CC(=O)O)CC(=O)O)CCN(CC(=O)O)CC(=O)O [Pentetic acid],inactive: -0.477
4,Cn1c(=O)c2c(ncn2CCO)n(C)c1=O [Etofylline],inactive: 0.502
5,COc1ccccc1N1CCN(CCCNc2cc(=O)n(C)c(=O)n2C)CC1 [Urapidil hydrochloride],inactive: -0.626
6,COc1nc(N)nc2c1ncn2[C@@H]1O[C@H](CO)[C@@H](O)[C@@H]1O [Nelarabine],inactive: 1.01
7,OC[C@H]1O[C@H](O[C@H]2O[C@H](CO)[C@@H](O)[C@H](O)[C@H]2O)[C@H](O)[C@@H](O)[C@@H]1O [Trehalose dihydrate],inactive: -0.24
8,CCC(=O)OCC(=O)[C@@]1(OC(=O)CC)[C@@H](C)C[C@H]2[C@@H]3CCC4=CC(=O)C=C[C@]4(C)[C@@]3(Cl)[C@@H](O)C[C@@]21C [Beclomethasone dipropionate],inactive: 0.0967
9,CCN(CC)Cc1cc(Nc2ccnc3cc(Cl)ccc23)ccc1O [Amodiaquin dihydrochloride dihydrate],inactive: -1.46
10,COCC(=O)O[C@]1(CCN(C)CCCc2nc3ccccc3[nH]2)CCc2cc(F)ccc2[C@@H]1C(C)C [Mibefradil],active: -2.07
11,CN1CCOC(c2ccccc2)c2ccccc2C1 (stereo unspecified) [Nefopam hydrochloride],inactive: -0.779
12,CN1CCC(=C2c3ccccc3CCc3sccc32)CC1 [Pizotifen malate],inactive: 1.2
13,"CCN(CC)CCOc1ccc(C(=C(Cl)c2ccccc2)c2ccccc2)cc1 [Clomiphene citrate (Z,E)]",inactive: -0.198
14,CCCCNc1ccc(C(=O)OCCN(C)C)cc1,inactive: -0.604
15,CN(C)[C@@H]1C(O)=C(C(=O)NCNCCCC[C@H](N)C(=O)O)C(=O)[C@@]2(O)C(O)=C3C(=O)c4c(O)cccc4[C@@](C)(O)[C@H]3C[C@@H]12 [Lymecycline],inactive: 0.0668
16,O=C(Cn1cnnn1)N[C@@H]1C(=O)N2C(C(=O)O)=C(CSc3nncs3)CS[C@H]12 [Ceftezole],inactive: -0.707
17,CCCCCOC(=O)Nc1nc(=O)n([C@@H]2O[C@H](C)[C@@H](O)[C@H]2O)cc1F [Capecitabine],inactive: 0.43
18,CCC1NC(=O)c2cc(S(N)(=O)=O)c(Cl)cc2N1 (stereo unspecified) [Quinethazone],inactive: -0.46
19,COc1ccccc1N1CCN(CCCCNC(=O)c2ccc3ccccc3c2)CC1,inactive: -1
20,Cc1cnc(C(=O)NCCc2ccc(S(=O)(=O)NC(=O)NC3CCCCC3)cc2)cn1 [Glipizide],inactive: 1.91
21,O=C1[C@H](CC[C@H](O)c2ccc(F)cc2)[C@@H](c2ccc(O)cc2)N1c1ccc(F)cc1 [Ezetimibe],inactive: -0.209
22,OC[C@H]1O[C@@H](c2ccc(Cl)c(Cc3ccc(O[C@H]4CCOC4)cc3)c2)[C@H](O)[C@@H](O)[C@@H]1O [Empagliflozin],inactive: 0.47
